{"source": "ChEMBL document CHEMBL1201862", "about": "“PubChem BioAssay data set” (2004)", "note": "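All cell lines were grown in 96-well plates and treated with compound for 48 hours. GI50 is the concentration that inhibits growth by half.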 The source made the active and inactive calls. Cut-off read from the data, not from the text of the source: active = GI50 up to about 1.1 µM and inactive = higher. Numbered stars: 1 amine (or outer) side, 2 acyl side, 3 side chain; on linkers, the order of the positions; unused ones are H or OH. Bridge positions count the residues as written; N and C are the ends. Square brackets hold non-standard residues; d marks the D form. Peptide text beside a SMILES is read from it. I, II: the chains in the order shown. Actinocin(9to1) = Cc1c2oc3c(C)ccc(C(=O)[*:1])c3nc-2c(C(=O)[*:2])c(N)c1=O; Hyp = O=C(O)[CH]1C[CH](O)CN1; NMeV = CN[CH](C(=O)O)C(C)C; Sar = CNCC(=O)O", "data": [{"tested_on": "NCI-H322M", "test": "growth of human tumour cells (NCI), 48 h", "values": [{"smiles": "CC(C)(C)C1C=C(Sc2ccccc2)C(=O)O1", "note": "(stereo not drawn)", "GI50": "inactive: > 100 µM"}, {"smiles": "CCOc1ccc(/N=N/c2ccc3cc(/C(C)=N/NC(=O)/C(C#N)=C\\c4ccc(N(CCC#N)CCC#N)cc4)c(=O)oc3c2)cc1", "GI50": "inactive: > 10 µM"}, {"smiles": "CC(=O)OC[C@H]1O[C@@H](O[C@H]2[C@H](OC(C)=O)C=CO[C@@H]2COC(C)=O)C(OC(C)=O)[C@H]2OC(C)(C)O[C@H]21", "note": "(stereo partly drawn)", "GI50": "inactive: > 100 µM"}, {"smiles": "CC1=NN(C(=O)c2ccc(Cl)cc2)C(=O)/C1=C/c1ccc(Cl)cc1", "GI50": "inactive: > 100 µM"}, {"smiles": "Cc1cccc2sc(NC(=O)c3cc([N+](=O)[O-])ccc3Cl)nc12", "GI50": "inactive: 7.94 µM"}, {"smiles": "N#Cc1cc(C#N)c(N)nc1N", "GI50": "inactive: > 100 µM"}, {"smiles": "CCOCCOc1ccc(OCCOCC)cc1", "GI50": "inactive: > 59.7 µM"}, {"smiles": "NC(=O)N/N=C(\\C(=O)C(=O)Nc1ccc(Cl)c(C(F)(F)F)c1)c1nc2ccc(C(=O)c3ccccc3)cc2nc1O", "GI50": "inactive: > 100 µM"}, {"smiles": "CCN(CC)c1ccc2cc(C(=O)Nc3nc(C45CC6CC(CC(C6)C4)C5)cs3)c(=O)oc2c1", "GI50": "inactive: > 100 µM"}, {"smiles": "CN(C)C(=O)N(CCCl)N=O", "GI50": "inactive: > 100 µM"}, {"smiles": "O=C(CC(=O)N1N=C(N2CCCCC2)CC1c1ccccc1)Nc1ccc(Cl)cc1", "note": "(stereo not drawn)", "GI50": "inactive: > 100 µM"}, {"smiles": "COC(=O)C(C(=O)C(=O)NC1=C(Cl)C(=O)c2ccccc2C1=O)c1csc(-n2nc(-c3ccccc3)cc2-c2ccccc2)n1", "note": "(stereo not drawn)", "GI50": "inactive: > 100 µM"}, {"smiles": "CN(C)CCCOc1nc2c(c(=O)n(C)c(=O)n2C)n1C.SC1=NC=NC2=NC=NC12", "GI50": "inactive: 7.01 µM"}, {"smiles": "COc1cc(OC)cc(N(C)Cc2cnc3nc(N)nc(N)c3c2C)c1", "GI50": "inactive: 5.55 µM"}, {"smiles": "O=C(OCC(OC(=O)c1ccccc1)C1CC(C(O)C2CCCCC2)C(=O)O1)c1ccccc1", "note": "(stereo not drawn)", "GI50": "inactive: > 100 µM"}, {"smiles": "Cn1c(=O)nc2n(-c3ccc(Br)cc3)c3ccccc3nc-2c1=O", "GI50": "inactive: 5.61 µM"}, {"smiles": "O=C1c2cccnc2-c2nccc3c2c1nc1ccc(Br)cc13", "GI50": "active: 0.0327 µM"}, {"smiles": "C#CC[C@]12CC(=O)CC[C@H]1CC1(C2)OCCO1", "GI50": "inactive: > 100 µM"}, {"smiles": "C[C@]12CCC(=O)C=C1CC[C@@H]1[C@@H]2[C@@H](O)C[C@@]2(C)[C@H]1CC[C@]2(O)C(=O)COC(=O)CCC1CCCC1", "note": "[HYDROCORTISONE CYPIONATE]", "GI50": "inactive: > 100 µM"}, {"smiles": "CC[C@@H]1CC[C@@H]2[C@H](CC[C@]3(C)[C@@H](OC(C)=O)CC[C@@H]23)[C@H]1C(=O)OC", "GI50": "inactive: 34.2 µM"}, {"smiles": "Cc1c2oc3c(C)ccc(C(=O)NC4C(=O)NC(C(C)C)C(=O)N5CC(O)CC5C(=O)N(C)CC(=O)N(C)C(C(C)C)C(=O)OC4C)c3nc-2c(C(=O)NC2C(=O)NC(C(C)C)C(=O)N3CC(O)CC3C(=O)N(C)CC(=O)N(C)C(C(C)C)C(=O)OC2C)c(N)c1=O", "note": "(stereo not drawn) (I: TV[Hyp][Sar][NMeV] / II: TV[Hyp][Sar][NMeV]; ester I:1-I:C, II:1-II:C; linker I:N-II:N via Actinocin(9to1); configuration not given here)", "GI50": "active: > 1 µM"}, {"smiles": "CC(C)C(C/C=C1/CC(CO)(COC(=O)C(C)(C)C)OC1=O)C(C)C", "note": "(stereo not drawn)", "GI50": "inactive: 13 µM"}, {"smiles": "O=C1/C(=C/c2cccc(Br)c2)CSC/C1=C\\c1cccc(Br)c1", "GI50": "inactive: 9.51 µM"}, {"smiles": "COc1cc2c[n+](C)c3c4cc5c(cc4ccc3c2cc1OC)OCO5", "note": "[NITIDINE CHLORIDE]", "GI50": "inactive: 3.52 µM"}, {"smiles": "COc1ccc(/C(Cl)=C/c2ccc(Cl)c(Cl)c2)cc1", "GI50": "inactive: 45.1 µM"}, {"smiles": "COC(=O)C1=CN(C2CCCCC2)C2(c3ccccc3)c3ccccc3C(=O)OC(=O)C12", "note": "(stereo not drawn)", "GI50": "inactive: > 100 µM"}, {"smiles": "CCOc1c2c(cc3c1C(=O)c1c(OC)cccc1C3=O)C=C(OC)CC2", "GI50": "inactive: > 25 µM"}, {"smiles": "CCOC(=O)c1c(NC(=O)c2ccccc2)sc2c1CCC2", "GI50": "inactive: > 100 µM"}, {"smiles": "COc1cc2c3c(c1)CCCN3CCC2", "GI50": "inactive: > 10 µM"}, {"smiles": "Cc1ccc(Nc2n[nH]c(=S)s2)cc1", "GI50": "inactive: > 100 µM"}, {"smiles": "N#CC(C(=O)C(=O)Nc1c(Cl)cccc1Cl)c1ccccc1", "note": "(stereo not drawn)", "GI50": "inactive: > 10 µM"}, {"smiles": "COc1cc2c(c(OC)c1OC)-c1ccc(SC)c(=O)cc1C(NC(=O)c1ccccc1)CC2", "note": "(stereo not drawn)", "GI50": "active: < 0.01 µM"}, {"smiles": "C=CCN1CCC2(CC1)NC(=O)c1ccccc1O2", "GI50": "inactive: > 100 µM"}, {"smiles": "Cc1cc(-c2cscn2)c(O)c([N+](=O)[O-])c1", "GI50": "inactive: 77.1 µM"}, {"smiles": "Cc1cn2c(/C=N/NC(=N)N)c(-c3cccc([N+](=O)[O-])c3)nc2s1", "GI50": "inactive: 1.67 µM"}, {"smiles": "CCCC(O)C(NC(=O)CCl)C(=O)O", "note": "(stereo not drawn)", "GI50": "inactive: > 100 µM"}, {"smiles": "COCC(=O)OC1CCn2c1nc1c2C(=O)C(C)=C(NC(C)=O)C1=N", "note": "(stereo not drawn)", "GI50": "inactive: 15.9 µM"}, {"smiles": "CC1CNC(NS(=O)(=O)c2cc(C(=O)Nc3ccc(Cl)cc3)c(Cl)cc2S)=NN1", "note": "(stereo not drawn)", "GI50": "inactive: 33.2 µM"}, {"smiles": "O=C(NNC(=O)c1ccncc1)c1ccncc1", "GI50": "inactive: > 100 µM"}, {"smiles": "C1OCC2S[C@@H]3COCO[C@@H]3C2O1", "note": "(stereo partly drawn)", "GI50": "inactive: > 100 µM"}, {"smiles": "COc1cc(C2c3cc4c(cc3[C@@H](NCCN3CCOCC3)C3COC(=O)[C@H]23)OCO4)cc(OC)c1O", "note": "(stereo partly drawn)", "GI50": "inactive: 10.6 µM"}, {"smiles": "N=C1C(=N)c2ccccc2-c2ccccc21", "GI50": "inactive: 1.75 µM"}, {"smiles": "C(=C\\Nc1ccc(Oc2ccccc2)cc1)/C=N/c1ccc(Oc2ccccc2)cc1", "GI50": "inactive: 16.5 µM"}]}]}
